Literature values in article PMC11784359 (Antimicrobial Agents and Chemotherapy, 2024).

Conditions: cited from earlier work

Structure (SMILES)	cardiovascular adverse effects (halted development)	cardiovascular liabilities (preclinical animal studies)
CC(C)(N)[C@H](NC(=O)c1ccc(C#CC#C[C@@H]2C[C@H]2CO)cc1)C(=O)NO [ACHN-975, reference compound]	dose-limiting cardiovascular adverse effects	
C[C@@](O)(C(F)F)[C@H](NC(=O)c1ccc(C#CC#CC2CC2)cc1)C(=O)NO [LPC-233]		did not show the same liabilities
